# According to the supplement of paper PMC8728848:
# Some of the results follow.
# B1: Banana lectin (Musa acuminata) (protein)
# chain: MNGAIKVGAWGGNGGSAFDMGPAYRIISVKIFSGDVVDAVDVTFTYYGKTETRHFGGSGGTPHEIVLQEGEYLVGMKGEFGNYHGVVVVGKLGFSTNKKSYGPFGNTGGTPFSLPIAAGKISGFFGRGGDFIDAIGVYLEP
# Assays:
# Assay in all cases: glycan array binding signal (z-score within array); higher = stronger binding
# Conditions in all cases: glycan notation: IUPAC condensed, linker removed
# [1] = target: Gal(b1-3)GlcNAc(b1-2)Man(a1-3)[Gal(b1-3)GlcNAc(b1-2)Man(a1-6)]Man(b1-4)GlcNAc(b1-4)GlcNAc
# Outline: (§1)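 Glycan array data were curated from 3228 arrays in the Consortium for Functional Glycomics database and kept only where the protein sequence was available. Glycan names were converted to IUPAC-condensed notation, and columns mapping to the same glycan were averaged. The binding signal is a within-array Z-score, averaged across arrays of the same protein sequence at different concentrations or buffers and across linkers. Negative Z-scores can be read as non-binding.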
# [2] = target: Gal(b1-3)GlcNAc(b1-2)Man(a1-3)[Gal(b1-3)GlcNAc(b1-2)Man(a1-6)]Man(b1-4)GlcNAc(b1-4)[Fuc(a1-6)]GlcNAc
# Outline: as §1
# [3] = target: Gal(b1-3)GlcNAc(b1-2)Man(a1-3)[GlcNAc(b1-4)][Gal(b1-3)GlcNAc(b1-2)Man(a1-6)]Man(b1-4)GlcNAc(b1-4)GlcNAc
# Outline: as §1
# [4] = target: Gal(b1-3)GlcNAc(b1-2)[Gal(b1-3)GlcNAc(b1-6)]Man(a1-6)[Gal(b1-3)GlcNAc(b1-2)Man(a1-3)]Man(b1-4)GlcNAc(b1-4)GlcNAc
# Outline: as §1
# [5] = target: Gal(b1-3)GlcNAc(b1-3)Gal(b1-3)GlcNAc
# Outline: as §1
# [6] = target: Gal(b1-3)GlcNAc(b1-3)Gal(b1-4)Glc
# Outline: as §1
# [7] = target: Gal(b1-3)GlcNAc(b1-3)Gal(b1-4)GlcNAc
# Outline: as §1
# [8] = target: Gal(b1-3)GlcNAc(b1-3)Gal(b1-4)GlcNAc(b1-2)Man(a1-3)[Gal(b1-3)GlcNAc(b1-3)Gal(b1-4)GlcNAc(b1-2)Man(a1-6)]Man(b1-4)GlcNAc(b1-4)GlcNAc
# Outline: as §1
# [9] = target: Gal(b1-3)GlcNAc(b1-3)Gal(b1-4)GlcNAc(b1-2)[Gal(b1-3)GlcNAc(b1-3)Gal(b1-4)GlcNAc(b1-6)]Man(a1-6)[Gal(b1-3)GlcNAc(b1-3)Gal(b1-4)GlcNAc(b1-2)Man(a1-3)]Man(b1-4)GlcNAc(b1-4)[Fuc(a1-6)]GlcNAc
# Outline: as §1
# [10] = target: Gal(b1-3)GlcNAc(b1-3)Gal(b1-4)GlcNAc(b1-3)Gal(b1-4)GlcNAc(b1-2)[Gal(b1-3)GlcNAc(b1-3)Gal(b1-4)GlcNAc(b1-3)Gal(b1-4)GlcNAc(b1-6)]Man(a1-6)[Gal(b1-3)GlcNAc(b1-3)Gal(b1-4)GlcNAc(b1-3)Gal(b1-4)GlcNAc(b1-2)Man(a1-3)]Man(b1-4)GlcNAc(b1-4)[Fuc(a1-6)]GlcNAc
# Outline: as §1
# [11] = target: Gal(b1-3)GlcNAc(b1-3)Gal(b1-4)GlcNAc(b1-6)[Gal(b1-3)GlcNAc(b1-3)]Gal(b1-4)Glc
# Outline: as §1
# [12] = target: Gal(b1-3)GlcNAc(b1-3)Gal(b1-4)[Fuc(a1-3)]GlcNAc
# Outline: as §1
# [13] = target: Gal(b1-3)GlcNAc(b1-3)Gal(b1-4)[Fuc(a1-3)]GlcNAc(b1-6)[Gal(b1-3)GlcNAc(b1-3)]Gal(b1-4)Glc
# Outline: as §1
# [14] = target: Gal(b1-3)GlcNAc(b1-3)GalNAc
# Outline: as §1
# [15] = target: Gal(b1-3)GlcNAc(b1-6)Gal(b1-4)GlcNAc
# Outline: as §1
# [16] = target: Gal(b1-3)GlcNAc(b1-6)GalNAc
# Outline: as §1
# [17] = target: Gal(b1-3)GlcNAc(b1-6)[Gal(b1-3)]GalNAc
# Outline: as §1
# Gal(b1-3)GlcNAc6S = target: Gal(b1-3)GlcNAc6S
# Outline: as §1
# [18] = target: Gal(b1-3)[Fuc(a1-4)]GlcNAc
# Outline: as §1
# [19] = target: Gal(b1-3)[Fuc(a1-4)]GlcNAc(b1-2)Man
# Outline: as §1
# [20] = target: Gal(b1-3)[Fuc(a1-4)]GlcNAc(b1-2)Man(a1-3)[Gal(b1-3)[Fuc(a1-4)]GlcNAc(b1-2)Man(a1-6)]Man(b1-4)GlcNAc(b1-4)[Fuc(a1-6)]GlcNAc
# Outline: as §1
# [21] = target: Gal(b1-3)[Fuc(a1-4)]GlcNAc(b1-3)Gal(b1-3)[Fuc(a1-4)]GlcNAc
# Outline: as §1
# [22] = target: Gal(b1-3)[Fuc(a1-4)]GlcNAc(b1-3)Gal(b1-4)[Fuc(a1-3)]GlcNAc
# Outline: as §1
# [23] = target: Gal(b1-3)[Fuc(a1-4)]GlcNAc(b1-6)GalNAc
# Outline: as §1
# [24] = target: Gal(b1-3)[GlcNAc(b1-6)]GalNAc
# Outline: as §1
# [25] = target: Gal(b1-3)[Neu5Ac(a2-6)]GalNAc
# Outline: as §1
# [26] = target: Gal(b1-3)[Neu5Ac(a2-6)]GlcNAc(b1-4)Gal(b1-4)Glc
# Outline: as §1
# [27] = target: Gal(b1-3)[Neu5Ac(b2-6)]GalNAc
# Outline: as §1
# Gal(b1-4)Gal = target: Gal(b1-4)Gal
# Outline: as §1
# [28] = target: Gal(b1-4)GalNAc(a1-3)[Fuc(a1-2)]Gal(b1-4)GlcNAc
# Outline: as §1
# [29] = target: Gal(b1-4)GalNAc(b1-3)[Fuc(a1-2)]Gal(b1-4)GlcNAc
# Outline: as §1
# Gal(b1-4)Glc = target: Gal(b1-4)Glc
# Outline: as §1
# Gal(b1-4)Glc6S = target: Gal(b1-4)Glc6S
# Outline: as §1
# Gal(b1-4)GlcNAc = target: Gal(b1-4)GlcNAc
# Outline: as §1
# [30] = target: Gal(b1-4)GlcNAc(a1-6)Gal(b1-4)GlcNAc
# Outline: as §1
# Gal(b1-4)GlcNAc(b1-2)Man = target: Gal(b1-4)GlcNAc(b1-2)Man
# Outline: as §1
# [31] = target: Gal(b1-4)GlcNAc(b1-2)Man(a1-3)Man(b1-4)GlcNAc(b1-4)GlcNAc
# Outline: as §1
# [32] = target: Gal(b1-4)GlcNAc(b1-2)Man(a1-3)[Gal(b1-4)GlcNAc(b1-2)Man(a1-6)]Man(b1-4)GlcNAc(b1-4)GlcNAc
# Outline: as §1
# [33] = target: Gal(b1-4)GlcNAc(b1-2)Man(a1-3)[Gal(b1-4)GlcNAc(b1-2)Man(a1-6)]Man(b1-4)GlcNAc(b1-4)[Fuc(a1-6)]GlcNAc
# Outline: as §1
# [34] = target: Gal(b1-4)GlcNAc(b1-2)Man(a1-3)[Gal(b1-4)GlcNAc(b1-2)Man(a1-6)][Gal(b1-4)GlcNAc(b1-4)]Man(b1-4)GlcNAc(b1-4)[Fuc(a1-6)]GlcNAc
# Outline: as §1
# [35] = target: Gal(b1-4)GlcNAc(b1-2)Man(a1-3)[Gal(b1-4)GlcNAc(b1-2)Man(a1-6)][GlcNAc(b1-4)]Man(b1-4)GlcNAc(b1-4)[Fuc(a1-6)]GlcNAc
# Outline: as §1
# [36] = target: Gal(b1-4)GlcNAc(b1-2)Man(a1-3)[GlcNAc(b1-2)Man(a1-6)]Man(b1-4)GlcNAc(b1-4)GlcNAc
# Outline: as §1
# [37] = target: Gal(b1-4)GlcNAc(b1-2)Man(a1-3)[GlcNAc(b1-4)][Gal(b1-4)GlcNAc(b1-2)Man(a1-6)]Man(b1-4)GlcNAc(b1-4)GlcNAc
# Outline: as §1
# [38] = target: Gal(b1-4)GlcNAc(b1-2)Man(a1-3)[Man(a1-6)]Man(b1-4)GlcNAc(b1-4)GlcNAc
# Outline: as §1
# [39] = target: Gal(b1-4)GlcNAc(b1-2)Man(a1-6)Man(b1-4)GlcNAc(b1-4)GlcNAc
# Outline: as §1
binder,measurement,setting,value
B1,glycan array binding signal (z-score),[1],0.348
same,glycan array binding signal (z-score),[2],-0.058
same,glycan array binding signal (z-score),[3],0.288
same,glycan array binding signal (z-score),[4],0.108
same,glycan array binding signal (z-score),[5],-0.192
same,glycan array binding signal (z-score),[6],-0.193
same,glycan array binding signal (z-score),[7],-0.193
same,glycan array binding signal (z-score),[8],-0.059
same,glycan array binding signal (z-score),[9],0.334
same,glycan array binding signal (z-score),[10],0.323
same,glycan array binding signal (z-score),[11],-0.193
same,glycan array binding signal (z-score),[12],-0.195
same,glycan array binding signal (z-score),[13],-0.194
same,glycan array binding signal (z-score),[14],-0.195
same,glycan array binding signal (z-score),[15],-0.194
same,glycan array binding signal (z-score),[16],-0.193
same,glycan array binding signal (z-score),[17],-0.173
same,glycan array binding signal (z-score),Gal(b1-3)GlcNAc6S,-0.193
same,glycan array binding signal (z-score),[18],-0.195
same,glycan array binding signal (z-score),[19],-0.19
same,glycan array binding signal (z-score),[20],0.897
same,glycan array binding signal (z-score),[21],-0.184
same,glycan array binding signal (z-score),[22],-0.201
same,glycan array binding signal (z-score),[23],-0.19
same,glycan array binding signal (z-score),[24],-0.192
same,glycan array binding signal (z-score),[25],-0.193
same,glycan array binding signal (z-score),[26],-0.194
same,glycan array binding signal (z-score),[27],-0.193
same,glycan array binding signal (z-score),Gal(b1-4)Gal,-0.194
same,glycan array binding signal (z-score),[28],-0.193
same,glycan array binding signal (z-score),[29],-0.195
same,glycan array binding signal (z-score),Gal(b1-4)Glc,-0.193
same,glycan array binding signal (z-score),Gal(b1-4)Glc6S,-0.192
same,glycan array binding signal (z-score),Gal(b1-4)GlcNAc,-0.195
same,glycan array binding signal (z-score),[30],-0.196
same,glycan array binding signal (z-score),Gal(b1-4)GlcNAc(b1-2)Man,-0.189
same,glycan array binding signal (z-score),[31],-0.188
same,glycan array binding signal (z-score),[32],-0.161
same,glycan array binding signal (z-score),[33],-0.144
same,glycan array binding signal (z-score),[34],-0.196
same,glycan array binding signal (z-score),[35],-0.195
same,glycan array binding signal (z-score),[36],-0.13
same,glycan array binding signal (z-score),[37],-0.195
same,glycan array binding signal (z-score),[38],1.08
same,glycan array binding signal (z-score),[39],-0.193
